From ChEMBL document CHEMBL1201862, “PubChem BioAssay data set” (2004)
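Tested at 5 concentrations; 48 h exposure; 96-well plates; endpoints linearly interpolated, else capped at highest concentration. GI50: concentration for 50% inhibition of growth.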 Activity calls are given as the source filed them. Rule as the data show it: active = GI50 up to about 1.1 µM and inactive = higher.

The compounds below were run on NCI-H322M (assay: growth of human tumour cells (NCI), 48 h).

Row | Structure (SMILES) | GI50
1 | CC(O)c1cc2c(s1)C(=O)c1sccc1C2=O (centres undefined) | active: 0.197 µM
2 | Cc1c(Cl)cc(C(C)(C)C)c(O)c1Cc1c(C)c(Cl)cc(C(C)(C)C)c1O | inactive: 2.3 µM
3 | COc1ccc2[nH]c(C(O)(Cc3cccnc3)Cc3cccnc3)cc2c1 | inactive: > 100 µM
4 | CN1N=C(N)c2cn(C3OC(COP(=O)(O)O)C(O)C3O)c3ncnc1c23 (centres undefined) | inactive: 2.49 µM
5 | c1c[nH]c(CN2CCOCC2)n1 | inactive: > 100 µM
6 | CC1=N/C(=C\c2c(O)ccc3ccccc23)C(=O)O1 | inactive: > 100 µM
7 | COc1cccc2c1[C@H]1OC(=O)NC1CCCCC2 (some centres undefined) | inactive: > 100 µM
8 | Cc1ccccc1NC(=O)C(=O)C(C(=O)c1ccccc1F)C1OC(=O)c2ccccc21 (centres undefined) | inactive: 23.9 µM
9 | COc1cc(/C=C2\C(=O)N(c3ccc(Cl)cc3)C(c3ccccc3)S2(=O)=O)cc(OC)c1OC (centres undefined) | inactive: 61.1 µM
10 | CCCCCCCCCC(=O)NCCc1c[nH]c2ccc(OC)cc12 | inactive: 18.4 µM
11 | COc1ccc([C@H]2C=C(c3cc(F)c(Cl)cc3Cl)NC(=S)N2)cc1 | inactive: 51.3 µM
12 | CC(C)[C@H](C)/C=C/[C@@H](C)C1CC[C@H]2[C@@]34C=C[C@]5(C[C@@H](O)CC[C@]5(C)[C@H]3CC[C@]12C)OO4 (some centres undefined) | inactive: 32.7 µM
13 | O=C1CCN2C(=O)CCN12 | inactive: > 100 µM
14 | Cc1nc2c(c(N3CCN(C)CC3)n1)Cc1ccccc1-2 | inactive: 66.8 µM
15 | Cc1ccc(C(=O)N2CCN(C(=O)c3ccc(C)cc3)c3ccccc32)cc1 | inactive: 9.48 µM
16 | COC1(C)CNCC(C)(C)NC(=O)C(C)(OC)CNCC(C)(C)NC1=O (centres undefined) | inactive: > 100 µM
17 | O=c1[nH]cc(COCC(O)CO)c(=O)[nH]1 (centres undefined) | inactive: > 100 µM
18 | COC(=O)[C@H]1C[C@H]1NC(=O)C(CC(=O)OCc1ccccc1)NC(=O)OCc1ccccc1 (some centres undefined) | inactive: > 100 µM
19 | Oc1cccc2c(Br)ccnc12 | inactive: 12.6 µM
20 | COC(CNC(=O)C(C)NC(=O)/C=C/c1ccccc1)OC (centres undefined) | inactive: > 100 µM
21 | COC(=O)/C=C1\CCC(C)O1 (centres undefined) | inactive: > 100 µM
22 | COc1ccc(N2C(=O)C(=O)N(c3ccc(/N=N\c4ccccc4)cc3)C2=S)cc1 | inactive: 23.2 µM
23 | N#C/C(=C/N1C(=O)/C(=C/c2ccc([N+](=O)[O-])cc2)SC1=S)c1nc2ccccc2s1 | inactive: 21.2 µM

Row | Structure (SMILES) | GI50
24 | OC(c1ccsc1)c1cc2ccccc2s1 (centres undefined) | inactive: > 10 µM
25 | CCc1[nH]nc(C(N)=O)c1/N=N/N(C)C | inactive: > 100 µM
26 | O=C(Nc1ccccc1C(=O)O)/C(=C/c1ccccc1)NC(=O)c1ccccc1 | inactive: > 100 µM
27 | CC(=O)c1ccc2c(c1)c1c(C)c3c[n+](C)ccc3c(C)c1n2C | inactive: 6.75 µM
28 | CC(C)(C)/N=C1/CC(C)(C)c2ccccc2/C(=N\c2ccccc2)S1 | inactive: > 100 µM
29 | N#CC1C(=O)N(c2ccccc2)NC12OC(=O)c1ccncc12 (centres undefined) | inactive: > 20 µM
30 | CC(=O)Oc1c(OC(C)C)cc(=O)n2ccsc12 | inactive: > 100 µM
31 | CCN1CCN(c2ccc(Nc3ccnc4ccc5c(nnn5C)c34)cc2)CC1 | inactive: 5.68 µM
32 | N#CC(C#N)=c1c(=O)c2c3ccccc3cc3cccc1c32 | inactive: > 100 µM
33 | Nc1nc(N)c2ncn(Cc3ccccc3)c2n1 | inactive: > 100 µM
34 | CC1OC(O[C@H]2CC[C@]3(C)[C@H]4CC=C5[C@@H]6[C@@H](C)[C@H](C)CC[C@]6(C(=O)OC6OC(CO)C(O)C(O)C6O)CC[C@@]5(C(=O)O)[C@]4(C)CC[C@H]3C2(C)C)C(O)C(O)C1O (some centres undefined) | inactive: > 100 µM
35 | CCOC(=O)c1c(-c2ccc(O)c(OC)c2)c(C#N)c(=S)n(C2OC(CO)C(O)C(O)C2O)c1-c1ccccc1 (centres undefined) | inactive: > 100 µM
36 | COc1ccc(/C=C2/N/C(=N\N=C/C(O)C(O)C(O)C(O)CO)NC2=O)cc1 (centres undefined) | inactive: > 100 µM
37 | O=C1C2Nc3ccccc3SC2C(=O)N1c1ccc(Br)cc1 (centres undefined) | inactive: 8.2 µM
38 | COc1cccc2cc(C(=O)NC34CC5CC(CC(C5)C3)C4)c(=N)oc12 | inactive: 98.4 µM
39 | NC(=O)c1ncn(C2C=CC(CP(=O)(O)O)C2)c1N (centres undefined) | inactive: > 100 µM
40 | COc1c(C2(c3ccc(F)cc3)SCCCS2)c(=O)c1=O | inactive: > 100 µM
41 | CC(=O)c1sc2c(c1OC(=O)c1cccs1)c(=O)n(-c1ccccc1)c(=S)n2-c1ccccc1 | inactive: 20.7 µM
42 | O=C1NC(=O)C(C(c2ccc(Cl)cc2)C2C(=O)NC(=O)NC2=O)C(=O)N1.c1ccncc1 | inactive: > 100 µM
43 | Cc1noc(-c2ccc(C(=O)O)[nH]2)c1Br | inactive: 91.2 µM
44 | FC(F)(F)C12C34C=CC5(CCC6(C=CC1(CC3)O6)C52C(F)(F)F)O4 (centres undefined) | inactive: > 100 µM
45 | COc1ccc(/C=C(\C(=O)OCC(C)C)c2ccc(OC)c(OC)c2)cc1OC | inactive: > 100 µM
46 | CCCCCCCCCCCCCCCC(=O)OCC1CCCN2CCCCC12 (centres undefined) | inactive: > 100 µM

Row | Structure (SMILES) | GI50
47 | Oc1ccc(C(O)(c2ccccc2)c2ccccc2)c2ccccc12 | inactive: 2.12 µM
48 | C(=N\C12CC3CC(CC(C3)C1)C2)/C1CCCCC1 | inactive: > 100 µM
49 | C=CCOC(=O)C1CCC(=O)N1C(=O)C(Cl)Cl (centres undefined) | inactive: > 100 µM
50 | NCCNCCCNC(=O)c1cc(-c2ccccc2)nc2ccccc12 | inactive: 46.8 µM
51 | CCOP1(=O)C=C(C)C(=C(Cl)Cl)C(C)=C1 (centres undefined) | inactive: 20.8 µM
52 | OCC1CC2CC1C1(C2)OCCO1 (centres undefined) | inactive: > 100 µM
53 | O=C(/C=C\c1cccc2ccccc12)c1cccs1 | inactive: 14.7 µM
54 | Cc1cccc(C2ON=C(c3ccccc3)N2C23CC4CC(CC(C4)C2)C3)c1 (centres undefined) | inactive: > 10 µM
55 | CN/C=C(\C(=O)c1ccc(OC)c(OC)c1)c1ccc(OC)cc1 | inactive: 16.4 µM
56 | C/C(=N\NC(=S)N1CCC(N2CCCCC2)CC1)c1ccccn1 | inactive: 2.52 µM
57 | CC(O)CN1C(=O)NC(Cc2ccccc2)C1=O (centres undefined) | inactive: > 100 µM
58 | O=C1/C(=C/c2ccc(Cl)cc2)CSC/C1=C\c1ccc(Cl)cc1 | inactive: 11.2 µM
59 | CC/C(CC(=O)CCC(=O)Nc1c(C)cccc1C)=N\NC(=O)NN | inactive: > 100 µM
60 | O=C(Nc1nc2ccccc2n1Cc1ccccc1)NC12CC3CC(CC(C3)C1)C2 | inactive: 23.6 µM
61 | CO/C(=N\N=C\c1ccc(OC)c(OC)c1)c1ccncc1 | inactive: > 10 µM
62 | CN(C)CCNc1ccc(CO)c2sc3ccc(O)cc3c(=O)c12 | inactive: 4.09 µM
63 | Oc1ccc2c3c1OC1c4[nH]ncc4C[C@H]4[C@@H](C2)N(CC2CC2)CC[C@]314 (some centres undefined) | inactive: > 100 µM
64 | COC(=O)/C=C/C1C2C3(CCC(C)C12C)OCCS3 (centres undefined) | inactive: > 100 µM
65 | COC(=O)C1C(=O)O[C@@H](c2ccc(OC)cc2)C1C(=O)OC (some centres undefined) | inactive: > 100 µM
66 | CC(C)(O)C1CC[C@]2(C)[C@H]3CC[C@@H]4[C@@]5(C)CCCC(C)(C)[C@@H]5CC[C@@]4(C)[C@]3(C)CC[C@@H]12 (some centres undefined) | inactive: > 100 µM
67 | COc1cccc(-c2cc(O)c3cc(C)cnc3n2)c1 | active: 0.427 µM
68 | Cc1cccc(NC(=O)c2cccc([N+](=O)[O-])c2O)c1C | inactive: 25.4 µM
69 | O=C(/C=C/c1ccc(O)c(O)c1)Oc1ccccc1 | inactive: 22.9 µM
